# Test results: the supplement of paper PMC6531468
# The other results are listed elsewhere or left out. Values come from read counts of a selection and are noisy. Scores sum up all selected molecules that hold the word; the word was not tested alone.
# What was measured:
# Experiment in all cases: 6-mer SELEX enrichment z-score vs GST control; IMP3 is the RNA-binding protein IGF2BP3; higher = more enriched by binding
# IMP3 KH1-4 = conditions: construct: KH1-4 (164-579); SELEX round: R4
# Experimental: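 SELEX-seq with GST-tagged IMP3 KH1-4 (Pro164-Lys579) and an N40 RNA pool, round 4. 6-mer z-score of sequence-tag enrichment normalised to the corresponding GST SELEX round; RNA k-mers written as DNA (T for U).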
# IMP3 RRM1-2 = conditions: construct: RRM1-2 (1-163); SELEX round: R2
# Experimental: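 SELEX-seq with GST-tagged IMP3 RRM1-2 (Met1-Asn163) and an N40 RNA pool, round 2. 6-mer enrichment z-score normalised to GST SELEX. RNA written as DNA (T = U).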
# IMP3 KH1-2 = conditions: construct: KH1-2 (164-376); SELEX round: R4
# Experimental: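 SELEX-seq with GST-tagged IMP3 KH1-2 (Pro164-Phe376) and an N40 RNA pool, round 4 (stringent 300/600 mM KCl washes). 6-mer z-score of sequence-tag enrichment normalised to the corresponding GST SELEX round; RNA k-mers written as DNA (T for U).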
# IMP3 KH3-4 = conditions: construct: KH3-4 (377-579); SELEX round: R4
# Experimental: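 SELEX-seq with GST-tagged IMP3 KH3-4 (Pro377-Lys579) and an N40 RNA pool, round 4. 6-mer z-score of sequence-tag enrichment normalised to the corresponding GST SELEX round; RNA k-mers written as DNA (T for U).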
# Chain of IMP3 KH3-4 (chain, as listed by the source): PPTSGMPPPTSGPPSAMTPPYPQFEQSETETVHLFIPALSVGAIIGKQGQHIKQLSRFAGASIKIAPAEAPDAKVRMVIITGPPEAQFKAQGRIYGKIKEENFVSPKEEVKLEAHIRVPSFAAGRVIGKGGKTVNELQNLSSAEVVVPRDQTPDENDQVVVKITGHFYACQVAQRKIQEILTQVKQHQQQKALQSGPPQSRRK
# Chain of IMP3 KH1-4 (chain, as listed by the source): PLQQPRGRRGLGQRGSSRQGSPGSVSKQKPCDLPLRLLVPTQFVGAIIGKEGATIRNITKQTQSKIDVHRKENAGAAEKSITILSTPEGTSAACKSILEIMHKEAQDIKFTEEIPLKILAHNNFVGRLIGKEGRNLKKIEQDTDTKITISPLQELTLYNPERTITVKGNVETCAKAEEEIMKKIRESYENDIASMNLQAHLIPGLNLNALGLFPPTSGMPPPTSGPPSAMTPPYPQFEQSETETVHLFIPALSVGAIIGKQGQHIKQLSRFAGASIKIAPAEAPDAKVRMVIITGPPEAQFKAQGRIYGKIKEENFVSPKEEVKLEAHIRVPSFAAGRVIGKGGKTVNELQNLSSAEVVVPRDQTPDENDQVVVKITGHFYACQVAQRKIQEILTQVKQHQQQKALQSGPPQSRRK
# Chain of IMP3 KH1-2 (chain, as listed by the source): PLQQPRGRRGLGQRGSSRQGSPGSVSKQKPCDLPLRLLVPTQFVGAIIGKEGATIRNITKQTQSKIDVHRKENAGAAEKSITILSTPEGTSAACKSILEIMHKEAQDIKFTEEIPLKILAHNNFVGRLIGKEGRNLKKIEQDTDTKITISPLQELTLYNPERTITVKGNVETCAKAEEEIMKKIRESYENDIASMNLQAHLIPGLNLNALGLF
# Chain of IMP3 RRM1-2 (chain, as listed by the source): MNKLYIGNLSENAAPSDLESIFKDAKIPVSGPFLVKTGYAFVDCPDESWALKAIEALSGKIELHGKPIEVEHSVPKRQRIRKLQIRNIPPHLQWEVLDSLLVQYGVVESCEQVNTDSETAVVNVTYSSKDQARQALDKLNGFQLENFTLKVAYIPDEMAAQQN
Sequence,6-mer SELEX enrichment z-score (IMP3 KH1-4),6-mer SELEX enrichment z-score (IMP3 RRM1-2),6-mer SELEX enrichment z-score (IMP3 KH1-2),6-mer SELEX enrichment z-score (IMP3 KH3-4)
CAGAGG,0.599,0.158,0.586,0.475
CAGATG,0.481,-0.155,0.423,0.529
CCCAGG,-1.13,-0.592,-1.07,-1.41
TGCATC,0.883,0.652,0.484,0.264
TAAACG,-0.449,-1.38,-0.667,-0.039
GGCTAA,0.152,0.051,0.043,0.601
ATCTCA,-0.086,0.733,0.053,-0.293
TAACCG,-0.589,-0.971,-0.363,-0.597
GTTTCG,-0.507,0.446,-0.361,-0.235
GCTCAA,-0.539,0.23,-0.472,-0.455
TCGTGC,-0.631,0.307,-0.579,-0.498
TAGGAA,0.185,-0.09,-0.036,0.446
ATAGGT,0.419,0.324,0.313,0.652
AAAATG,-0.035,-2.24,-0.353,1.25
ATGTTG,0.23,0.096,0.04,0.297
GGCGGA,-0.404,-0.115,-0.185,-0.146
AACCGC,-0.542,-1.05,0.095,-1.04
AAATGT,0.197,-0.994,-0.183,0.621
CCTACT,-0.344,-0.119,-0.181,-0.418

Sequence,6-mer SELEX enrichment z-score (IMP3 KH1-4),6-mer SELEX enrichment z-score (IMP3 RRM1-2),6-mer SELEX enrichment z-score (IMP3 KH1-2),6-mer SELEX enrichment z-score (IMP3 KH3-4)
GCATTA,0.485,0.577,0.307,0.454
TCCACC,-0.331,-0.08,-0.339,-1.23
TTAAAG,0.181,-0.642,-0.01,0.848
AGATAG,0.566,-0.414,0.514,0.942
TGGTAA,-0.267,-0.072,-0.236,-0.109
ATATGA,2.09,-0.586,1.6,2.86
CACGGT,0.049,0.401,,-0.203
ACGCCT,-0.709,-0.371,-0.685,-0.927
TGGAAT,0.444,-0.28,0.192,0.549
TGCCAC,0.09,-0.099,-0.016,-0.422
TTTAGT,0.391,0.441,0.341,0.557
TAAGAC,-0.118,-0.736,-0.114,0.208
GAAGAC,-0.211,-1.37,-0.298,-0.262
TAGTGT,-0.24,0.267,-0.225,-0.048
CGCAGG,0.067,0.343,0.083,-0.038
AACGTG,-1.08,-1.06,-1.26,-1.02
GATCTG,-0.067,-0.12,,-0.053
GGCACC,0.303,0.408,0.155,-0.148
GACTTG,-0.683,-0.167,,-0.62

Sequence,6-mer SELEX enrichment z-score (IMP3 KH1-4),6-mer SELEX enrichment z-score (IMP3 RRM1-2),6-mer SELEX enrichment z-score (IMP3 KH1-2),6-mer SELEX enrichment z-score (IMP3 KH3-4)
TACCGA,-1.5,-1.02,-1.21,-1.47
TGCTTC,0.171,0.343,0.182,0.127
GTATTT,0.028,0.292,0.045,0.276
TAAACC,-1.05,-1.48,,-1.09
TCCCTT,0.57,0.163,0.429,0.14
CCCTTA,0.375,-0.043,0.172,-0.111
CGTAGC,-1.99,-0.158,-1.85,-1.8
CTCCCC,0.038,-0.551,0.32,-1.01
ATCAGT,0.819,1.15,,0.53
TATGAG,-0.014,-0.169,-0.245,0.387
TCCGCT,0.354,0.021,0.675,0.084
TAGATT,0.686,0.025,0.547,1.02
GCACCA,0.506,0.766,0.388,-0.275
TAAAGC,-0.819,-0.639,-0.875,-0.555
CTGCAT,0.495,0.362,0.384,0.152
TTGTAA,0.34,-0.147,0.156,0.666
TAAGCA,0.221,0.293,0.117,0.306
GGATCT,-0.084,0.309,-0.077,0.043
